Reference: ChEMBL document CHEMBL4888484, “Replenishing the malaria drug discovery pipeline: Screening and hit evaluation of the MMV Hit Generation Library 1 (HGL1) against asexual blood stage Plasmodium falciparum ,using a nano luciferase reporter read-out” (2022)
Hit rate of the full screen: of about 4,800 compounds, about 420 (8.8%) showed an effect of 50% or more. Some of the results follow.

The molecules below were run on Plasmodium falciparum (assay: Confirmatory screen in NF54 nanoGlo assay, in single point, at 2uM, 72h). Details: timepoint 72 hour.
Format: functional, Erythrocyte
`CN1CCC(n2ncc3[nH]c(-c4ccc(C(F)(F)F)cc4)nc32)CC1` was tested, and the “% Inhibition” value was 96%.
`COC(c1ccc(-c2ccc(OC3CC3)cc2)cc1)C(C)N` (stereo not drawn) was tested, and the “% Inhibition” value was -3%.
With `CC1(C)C[C@](C)(c2ccc(N)cc2)c2cc(N)ccc21` the “% Inhibition” value was -4%.
In the case of `NC(=O)C1C(=O)NC(c2ccccc2)C=C1c1ccccc1` (stereo not drawn), the “% Inhibition” value is reported as -8%.
`CS(=O)(=O)Cc1ccc(Cl)cc1NC1CCCC(C2CC2)C1` (stereo not drawn) was tested, and the “% Inhibition” value was 1%.
In the case of `O=S(=O)(Cc1ccon1)N1CCN(Cc2cccnc2)CC1`, the “% Inhibition” value is reported as 0%.
`Cc1cc(=O)n(CC(=O)N2CCC(C)CC2)c(-c2ccc(F)cc2)n1` was tested, and the “% Inhibition” value was -4%.
`O=S1(=O)CCC(NCCC2CCCO2)c2cc(F)c(F)cc21` (stereo not drawn) was tested, and the “% Inhibition” value was -5%.
With `O=C(N[C@@H](Cn1nccn1)c1ccccc1)c1cc(Br)ccc1Cl` the “% Inhibition” value was 65%.
With `CCN1C(=O)c2ccc(NC(=O)c3ccncc3)c3cccc1c23` the “% Inhibition” value was 0%.
`NC(=O)c1nnn(CC(=O)c2ccc(Cl)cc2)c1C(N)=O` was tested, and the “% Inhibition” value was -9%.
For `Cc1cc(C(=O)NCc2ccncc2)no1`, the “% Inhibition” value was -11%.
For `CC(C)CC[C@@H](CCNC1CCN(C)CC1)c1ccc(Cl)cc1`, the “% Inhibition” value was 80%.
For `CC(C)NC(=O)N(C)Cc1ccc(F)cc1`, the “% Inhibition” value was 0%.
In the case of `O=C(NCC1CC1)c1cn[nH]c1-c1ccccc1`, the “% Inhibition” value is reported as -1%.
`CC[C@H](C)S(=O)(=O)NC(=O)Cc1c(C)noc1C` was tested, and the “% Inhibition” value was 5%.
In the case of `CN(C)C(=O)CN1CCc2cccc(NC(=O)OC(C)(C)C)c21`, the “% Inhibition” value is reported as 1%.
With `O=C(C[C@H]1CCN(C(=O)c2ccc(F)cc2)C1)N1CCOCC1` the “% Inhibition” value was -10%.
For `CC1=CC(C2CC(=O)N(c3ccc(Cl)cc3)C2=O)CC2C(=O)N(c3ccc(Cl)cc3)C(=O)C12` (stereo not drawn), the “% Inhibition” value was -1%.
In the case of `Cc1nc(NC(=O)NCCn2ncnn2)sc1C`, the “% Inhibition” value is reported as 2%.
For `O=C(NCCc1ccc(O)cc1)c1ccc2n[nH]c(=O)n2c1`, the “% Inhibition” value was -27%.
For `CCc1nnc(NC(=O)C2(C)COC(c3ccccc3)OC2)s1` (stereo not drawn), the “% Inhibition” value was 3%.
In the case of `Cc1ccc(N(C)CC(=O)N2CCC2)c(Br)c1`, the “% Inhibition” value is reported as -5%.
`CCN(C(=O)Cn1c(=O)n(Cc2ccc(F)cc2)c(=O)c2ccccc21)c1cccc(C)c1` was tested, and the “% Inhibition” value was 7%.
For `CCOCCCNC/C=C/c1ccccc1`, the “% Inhibition” value was -5%.
In the case of `N#Cc1cccnc1-n1cc(NC(=O)NCCC2(O)CCC2)cn1`, the “% Inhibition” value is reported as -11%.
In the case of `COc1ccc(-c2nn(C3CCCC3)c(-c3ccc(OC)c(OC)c3)c2Cl)cc1OC`, the “% Inhibition” value is reported as -4%.
`Cc1nonc1N(Cc1ccc(Cl)cc1Cl)S(=O)(=O)c1ccccc1` was tested, and the “% Inhibition” value was -22%.
With `O=C(Nn1cnc2ccccc2c1=O)c1cnccn1` the “% Inhibition” value was 2%.
In the case of `Cn1nc(C(=O)Nc2nnc[nH]2)ccc1=O`, the “% Inhibition” value is reported as 4%.
For `CCC(C)(C)c1ccc(OCC(=O)Nc2cccc(C(=O)CC(=O)Nc3ccc(Oc4ccccc4)cc3)c2)c(C(C)(C)CC)c1`, the “% Inhibition” value was -4%.
In the case of `Cn1nc(C(=O)NCc2ccc(F)cc2)cc1C(=O)NCc1ccc(F)cc1`, the “% Inhibition” value is reported as -4%.
`O=C(c1ccccn1)N1CC(n2cnnc2[C@@H]2CCCO2)C1` was tested, and the “% Inhibition” value was -8%.
In the case of `CNc1nc(N2C[C@H](C)[C@@](O)(C3CC3)C2)nc2c1CCC2`, the “% Inhibition” value is reported as -11%.
In the case of `O=C(Cn1c(=O)n(Cc2ccco2)c(=O)c2ccccc21)Nc1cccc(Br)c1`, the “% Inhibition” value is reported as 6%.
In the case of `O=C(CCC1CCCCC1)Nc1ncccn1`, the “% Inhibition” value is reported as -7%.
In the case of `CCC(C(=O)Nc1cc(C)on1)(C(F)(F)F)C(F)(F)F`, the “% Inhibition” value is reported as 2%.
With `CNC(=O)C(=O)Nc1ccccc1C(F)(F)F` the “% Inhibition” value was 2%.
For `Oc1csc(Cc2nc(C(F)(F)F)cs2)n1`, the “% Inhibition” value was -10%.
`COCc1cc(C)n(CC#N)c(=O)c1C#N` was tested, and the “% Inhibition” value was 11%.
`CC(C)(C)c1ccnc(N[C@H]2CO[C@H]3[C@@H]2OC[C@@H]3NC(=O)NCc2ccccc2)n1` was tested, and the “% Inhibition” value was 18%.
For `C#CCn1ccc(O)c(Cc2ccccc2)c1=O`, the “% Inhibition” value was 10%.
In the case of `CC1CCN(c2nc3c(c(Oc4cccc(F)c4)n2)CN(Cc2ccccn2)CC3)CC1`, the “% Inhibition” value is reported as 14%.
`CCC(=O)O[C@@]1(c2ccc(C3CC3)cc2)CCCN(Cc2ccccc2)C1` was tested, and the “% Inhibition” value was 3%.
`N#Cc1cnn2ccc(-c3ccc4c(c3)CCC4)nc12` was tested, and the “% Inhibition” value was -10%.
In the case of `Cn1cnnc1NC(=O)[C@@H]1CC=CCC1`, the “% Inhibition” value is reported as -7%.
In the case of `O=C1CCC(C(=O)N2CCC[C@H]2c2ccncc2)=NN1c1ccccc1`, the “% Inhibition” value is reported as -10%.
In the case of `Cc1ccc(-c2csc(N3C(=O)CC4CS(=O)(=O)CC43)n2)cc1C` (stereo not drawn), the “% Inhibition” value is reported as 3%.
For `C[C@@H](c1cccs1)N(C)C(=O)CN1C(=O)COc2ccccc21`, the “% Inhibition” value was -2%.
For `CCC1=C(c2ccc(C)cc2)S(=O)(=O)N=C1N1CCC(C(=O)NCCN2CCCC[C@@H]2C)CC1`, the “% Inhibition” value was 44%.
With `CCc1nc2cc(N3CCC(C(=O)Nc4ccc5c(c4)OCO5)CC3)cnc2nc1CC` the “% Inhibition” value was 61%.
For `NC(=O)CN1CC2(CCCCC2)N(Cc2c(F)cccc2Cl)CC1=O`, the “% Inhibition” value was -15%.
In the case of `Cc1cc(N2CCO[C@@H](Cn3cccn3)C2)c2ccc(F)c(F)c2n1`, the “% Inhibition” value is reported as 3%.
`O=C(N[C@H](c1ccccc1)C1CC1)N1CCN(S(=O)(=O)c2cccc(F)c2)CC1` was tested, and the “% Inhibition” value was 4%.
In the case of `CC1(C)CCC(Nc2ccc(C(N)=O)nn2)CC1`, the “% Inhibition” value is reported as 70%.
`NC1CC(NCCc2cccc3cccnc23)c2ccccc21` (stereo not drawn) was tested, and the “% Inhibition” value was 43%.
With `Cn1cc(C(=O)N2N=CC[C@]2(O)C(F)(F)F)cn1` the “% Inhibition” value was 1%.
For `CCOC(=O)N1CCN(C(=O)c2cnn3c(-c4ccc(C(C)C)cc4)ccnc23)CC1`, the “% Inhibition” value was -6%.
`Brc1ccc(NCc2[nH]nnc2-c2ccccc2)cc1` was tested, and the “% Inhibition” value was 2%.
With `Cc1cccc(N2CCN(C(=O)CCC3=Nc4cc(C(F)(F)F)ccc4S(=O)(=O)N3)CC2)c1C` the “% Inhibition” value was 2%.
For `COc1cccc(NC(=O)CN2CN(c3ccccc3)C3(CCN(C(=O)C[C@@H](C)CC(C)(C)C)CC3)C2=O)c1`, the “% Inhibition” value was 10%.
In the case of `COCC1(C(=O)N2CCN(c3cncc4ccccc34)CC2)CCC1`, the “% Inhibition” value is reported as 4%.
`C=CCOc1ccc(Cl)c(C(=O)N[C@H]2CCS(=O)(=O)C2)n1` was tested, and the “% Inhibition” value was 0%.
With `O=C(C1CCCC1)N1CCN(S(=O)(=O)c2ccccc2)CC1` the “% Inhibition” value was -5%.
`O=C(O)c1cc(C=Cc2ccc3ncccc3c2)ncn1` was tested, and the “% Inhibition” value was 3%.
In the case of `CC(NC(Cc1ccccc1)C(=O)N1CCCCC1)c1ccncc1` (stereo not drawn), the “% Inhibition” value is reported as -15%.
With `O=C(Nc1ccsc1C(=O)NCc1cc(F)cc(F)c1)c1cnccn1` the “% Inhibition” value was 0%.
For `Cc1cc2nnc(-c3nc4ccccc4[nH]3)c(N)n2n1`, the “% Inhibition” value was -10%.
In the case of `O=C(NCC(N1CCOCC1)C(F)(F)F)C1CC12CCOC2` (stereo not drawn), the “% Inhibition” value is reported as 1%.
`CCC(=O)Nc1nc2ccc(NS(=O)(=O)c3cccc4nsnc34)cc2s1` was tested, and the “% Inhibition” value was -6%.
`Cc1cncn1C1CCN(C(=O)C2(Cc3ccccc3)CC3CCC2C3)CC1` (stereo not drawn) was tested, and the “% Inhibition” value was -3%.
In the case of `CO[C@H]1c2ccccc2C(=O)N1C1CCCCCCCCCCC1`, the “% Inhibition” value is reported as 4%.
`COc1ccc(N2CCN(c3nccn4nc(-c5cccs5)cc34)CC2)cc1` was tested, and the “% Inhibition” value was 6%.
For `COc1cc(N2CCn3c(nc4cc(Cl)ccc43)C2)ccc1NC(=O)C1CCCCC1`, the “% Inhibition” value was -3%.
For `CCOC(=O)c1ncn(C2CCN(C(=O)c3cccc(Cn4ccnc4)c3)CC2)c1N`, the “% Inhibition” value was -3%.
In the case of `O=C(NC1CCOCC1)c1ccc(-c2ccc(F)c(F)c2F)cn1`, the “% Inhibition” value is reported as 6%.
In the case of `O=C(c1ccccc1F)N(Cc1nccn1Cc1c(F)cccc1Cl)C1CC1`, the “% Inhibition” value is reported as 36%.
`Cc1nn(C)c(NC(=O)CCc2c[nH]cn2)c1C` was tested, and the “% Inhibition” value was -9%.
For `CCC(C)(C)C(=O)N1CCC[C@@H]1CCc1ncc(C)n1C(C)C`, the “% Inhibition” value was 4%.
`CC1(C)Cc2cc(S(=O)(=O)N[C@H]3CCC(=O)NC3(C)C)ccc2O1` was tested, and the “% Inhibition” value was -11%.
For `CCCOc1cc2nc(C(F)(F)F)cc(-c3cccs3)c2cc1OCCC`, the “% Inhibition” value was -4%.
In the case of `Cc1nc2ccccc2n1CCC(=O)N1CCN(Cc2ccc3c(c2)OCO3)CC1`, the “% Inhibition” value is reported as 2%.
`O=C1CN(C(=O)C2CC2c2ccccc2C(F)(F)F)CCN1` (stereo not drawn) was tested, and the “% Inhibition” value was -12%.
`CCn1cc(S(=O)(=O)N(C)Cc2nn(CC)cc2Cl)cn1` was tested, and the “% Inhibition” value was 2%.
In the case of `N#Cc1ccc(CNc2ccccc2OCC(F)F)o1`, the “% Inhibition” value is reported as -10%.
In the case of `N#Cc1c(CN(CCn2cccn2)Cc2cn3ccccc3c2C#N)cn2ccccc12`, the “% Inhibition” value is reported as -15%.
`Cc1ccc(C)c(C(=O)N2C[C@@H]3CN(C(=O)C4CCC4)C[C@]3(C(=O)O)C2)c1` was tested, and the “% Inhibition” value was -6%.
`O=C(CNc1cccc(C(F)(F)F)c1)OCC(=O)N1CCNC1=O` was tested, and the “% Inhibition” value was 4%.
With `O=C(CCc1ccc(Cl)c(C(F)(F)F)c1)N1CC[C@H](N2CCc3ccccc3C2)C1` the “% Inhibition” value was 52%.
`COc1cccc(NC(=O)Cn2c(C)ccc(NS(=O)(=O)c3ccc(C)cc3)c2=O)c1` was tested, and the “% Inhibition” value was 63%.
With `CC(C)NC(=O)[C@H](C)N(C)Cc1nccn1CC(F)(F)F` the “% Inhibition” value was -1%.
In the case of `Cc1sc(NC(N)=O)nc1Cc1ccccc1`, the “% Inhibition” value is reported as -3%.
`O=C(NCCCc1ccccc1)[C@H]1CCCN(c2nc3ccccc3[nH]2)C1` was tested, and the “% Inhibition” value was -6%.
`CC(C)(CC(=O)O)CC(=O)Nc1ccc(Cc2nnc3ccccn23)cc1` was tested, and the “% Inhibition” value was -4%.
`Cc1ccc(S(=O)(=O)NCC2(CNS(=O)(=O)c3ccc(C)cc3)CN(S(=O)(=O)c3ccc(C)cc3)C2)cc1` was tested, and the “% Inhibition” value was 7%.
In the case of `CCn1c(=O)c(N2CCC(C(=O)N3CCN(c4ccccc4F)CC3)CC2)nc2cccnc21`, the “% Inhibition” value is reported as -12%.
For `Cc1c2c(C(F)(F)F)cc(=O)n(CCC(=O)Nc3ncc(Cl)cc3Cl)c2nn1C`, the “% Inhibition” value was -11%.
With `COc1cc(Br)ccc1N` the “% Inhibition” value was 1%.
With `Cc1cc(C)c2c(c1)[C@@H](C)CC(C)(C)N2C(=O)c1sc2ccccc2c1Cl` the “% Inhibition” value was 0%.
For `C[C@@H](C(=O)NCCN1CCCCC1)N1C(=O)COc2ccc(C(=O)COc3ccccc3Cl)cc21`, the “% Inhibition” value was -5%.
`O=S(=O)(NC1CCCCC1)c1ccc(Cl)c(S(=O)(=O)NC2CCCCC2)c1` was tested, and the “% Inhibition” value was 0%.
With `Cc1ccc(N2C(=O)c3ccccc3[C@H]2Nc2nc(C)cs2)nc1` the “% Inhibition” value was -18%.
For `Cc1c(NC(=O)N2CCC(C)C(n3ccnc3)C2)cccc1N(C)C` (stereo not drawn), the “% Inhibition” value was -1%.
